“And” between values parts separate entries of the source, which are not always exact repeats. Equal values may be shown once. The whole screen tested about 150,000 compounds, of which about 540 (0.36%) showed an effect of 50% or more. The list shows a part of the results.
Tested on: Plasmodium falciparum
Experiment: Primary screen in NF54 nanoGlo assay, in single point, at 2uM, 72h; a lower Z score goes with more inhibition
Type: functional, Erythrocyte
Conditions: timepoint 72 hour

Structure (SMILES): COc1ccccc1O[C@H]1CCCN(c2nc(C)ns2)C1
- % Inhibition: -1%
- Z score: 0.31

Structure (SMILES): Cc1nc(N2CCC(c3nc(-c4ccccc4)no3)CC2)c2c(C)noc2n1
- % Inhibition: 35%
- Z score: -9.85

Structure (SMILES): COc1cc(OC)nc(-n2nc(C)cc2C(=O)Nc2ccc(Cl)cc2)n1
- % Inhibition: 40%
- Z score: -1.46

Structure (SMILES): CN(Cc1cscn1)c1ncc(Cl)cc1Br
- % Inhibition: -4%
- Z score: 0.43

Structure (SMILES): CCc1ccc(CN2CCN(C(C)=O)[C@H]3CS(=O)(=O)C[C@H]32)cc1
- % Inhibition: -4%
- Z score: 0.46

Structure (SMILES): Cc1cccc(-c2nnc(N3CC[S+]([O-])CC3)n2C)n1
- % Inhibition: -12%
- Z score: 1.62

Structure (SMILES): COc1ccc(C2(c3nc(C4CC4)no3)CCOCC2)cc1
- % Inhibition: 2%
- Z score: -0.33

Structure (SMILES): NS(=O)(=O)c1ccc(CCNC(=O)C2CN(C(=O)COc3ccccc3F)C2)cc1
- % Inhibition: -12%
- Z score: 1.35

Structure (SMILES): Cc1cc(C)c(NC(=O)CN(C)S(C)(=O)=O)c(C)c1
- % Inhibition: -1%
- Z score: 0.19

Structure (SMILES): Cc1cc(N2C[C@@H]3OC(=O)N(C4CCN(C(C)C)CC4)[C@@H]3C2)ncn1
- % Inhibition: 1%
- Z score: -0.15

Structure (SMILES): COc1ccc([C@H](C(=O)Nc2ccc(N(C)C)cc2)N(Cc2ccccc2C)C(=O)CN2C(=O)C(=O)c3ccccc32)cc1OC
- % Inhibition: 33%
- Z score: -3.77

Structure (SMILES): CC(C)CC1(NC(=O)c2cccc(CC(=O)O)c2)CC1
- % Inhibition: -3%
- Z score: 0.36

Structure (SMILES): CCn1cc(NC(=O)C2CCN(C(=O)CC[C@H]3CCCO3)CC2)cn1
- % Inhibition: 20%
- Z score: -2.58

Structure (SMILES): O=C(COc1ccc(-c2ccccc2)cc1)NC[C@H]1CCCO1
- % Inhibition: -11%
- Z score: 2.03

Structure (SMILES): Cc1ccc(NCc2ncc(C)n2C)c(C)n1
- % Inhibition: -8%
- Z score: 1.46

Structure (SMILES): O=C1OC(=O)c2ccc(N3CCOCC3)c3c(N4CCOCC4)ccc1c23
- % Inhibition: -15%
- Z score: 1.65

Structure (SMILES): CCn1nccc1NC(=O)Cn1cc(-c2cc(N)nc(N(C)C)n2)cn1
- % Inhibition: -5%
- Z score: 0.93

Structure (SMILES): CC(=O)N1CCc2cc(N[C@@H](C)C(=O)Nc3ccc(C)cc3Br)ccc21
- % Inhibition: -2%
- Z score: 0.13

Structure (SMILES): CCc1oc(C(=O)N2CCN(C(=O)CN3CCOCC3)CC2)cc1C
- % Inhibition: 2%
- Z score: -0.34

Structure (SMILES): CCn1nc(C)c2c1c(=O)n(Cc1ccc(F)cc1)c(=O)n2CC(=O)Nc1cc(C)ccc1C
- % Inhibition: -12%
- Z score: 1.17

Structure (SMILES): Clc1ccc([C@@H]2C=C(c3ccccc3)N=C3NC=NN32)c(Cl)c1
- % Inhibition: -16%
- Z score: 1.83

Structure (SMILES): COc1cccc(-c2nc3ccc(C(=O)N[C@@H](C)Cc4cccnc4)cc3o2)c1
- % Inhibition: -17%
- Z score: 2.35

Structure (SMILES): COc1ccc(Nc2cc(NCC3(O)CCC3)ncn2)c(OC)c1
- % Inhibition: -11%
- Z score: 1.16

Structure (SMILES): COc1cccc2c1CCc1c(C(=O)Nc3nnn[nH]3)n[nH]c1-2
- % Inhibition (2 µM): 8% and 10%
- Z score (2 µM): -1.03 and -1.23

Structure (SMILES): CCOC(=O)N1CCC(N[C@H](c2nnc3ccccn23)C(C)C)CC1
- % Inhibition: -2%
- Z score: 0.28

Structure (SMILES): O=C1ON(c2ccccc2)[C@@H](c2cccc(Br)c2)N1c1ccccc1
- % Inhibition: -1%
- Z score: 0.18

Structure (SMILES): CCNc1nc(N)c(C(=O)OC)s1
- % Inhibition: -6%
- Z score: 0.59

Structure (SMILES): FC(F)(F)c1ccnc(NC2CCCCCC2)n1
- % Inhibition: -7%
- Z score: 0.87

Structure (SMILES): Cc1cccc(O[C@H]2CCN(S(=O)(=O)C3CC3)C2)n1
- % Inhibition: -11%
- Z score: 2.17

Structure (SMILES): CC(C)=CCC[C@@]1(C)CCC(=O)N(Cc2csc(N(C)C)n2)C1
- % Inhibition: -7%
- Z score: 1.36

Structure (SMILES): CCN(CCOc1ccccc1F)C(=O)c1cccn1C
- % Inhibition: -11%
- Z score: 1.35

Structure (SMILES): C[C@@H](CN(C)CC1(CO)CCOCC1)c1ccccc1
- % Inhibition: -11%
- Z score: 1.48

Structure (SMILES): Cc1ccsc1C(=O)N[C@H]1CCOC[C@@H]1OCCO
- % Inhibition: 2%
- Z score: -0.33

Structure (SMILES): Cc1ccccc1NS(=O)(=O)[C@H]1CCS(=O)(=O)C1
- % Inhibition: -10%
- Z score: 1.14

Structure (SMILES): COc1ccc(-c2nnc(NC(=O)c3ccoc3C)[nH]2)cc1OC
- % Inhibition: -8%
- Z score: 1.37

Structure (SMILES): O=C(Nc1ccccc1)Nc1cnc(N2CCCC2)nc1
- % Inhibition: -6%
- Z score: 1.08

Structure (SMILES): CC(C)CN(Cc1ccsc1)C[C@@H](O)Cc1ccccc1
- % Inhibition: 4%
- Z score: -0.55

Structure (SMILES): Cc1noc(C)c1[C@@H](C)CNC(=O)C(=O)c1ccc(Cl)cc1
- % Inhibition: 2%
- Z score: -0.29

Structure (SMILES): Cc1c(Cl)cccc1NC(=O)c1nnn(CC(=O)NCc2ccc3c(c2)OCO3)c1C
- % Inhibition: -4%
- Z score: 0.52

Structure (SMILES): Cn1nnc2c1CC(C(=O)NC1CCCc3sc(Cl)cc31)CC2 (configuration not stated)
- % Inhibition: -14%
- Z score: 1.93

Structure (SMILES): NC(=O)[C@H]1CCCN(c2ccnc(C(=O)NCc3ccccc3)c2)C1
- % Inhibition: 33%
- Z score: -0.45

Structure (SMILES): O=C(NC1CCCC1)c1ccc(COCC(F)(F)C(F)F)o1
- % Inhibition: -4%
- Z score: 0.56

Structure (SMILES): COC(=O)C1CCN(C(=O)[C@@H]2Cc3ccccc3O2)CC1
- % Inhibition: -4%
- Z score: 0.6

Structure (SMILES): N#Cc1c[nH]c(C(=O)N2CCN3C(=O)CC[C@H]3C2)c1
- % Inhibition: -3%
- Z score: 0.33

Structure (SMILES): CC[C@@]1(c2ccc(NC(=O)c3ccc4c(c3)OCO4)cc2)CCC(=O)NC1=O
- % Inhibition: 5%
- Z score: -0.8

Structure (SMILES): CCN1CCCN(S(=O)(=O)Cc2ccccc2)CC12CCOCC2
- % Inhibition: 4%
- Z score: -0.52

Structure (SMILES): O=C([C@H]1NCC12CCCC2)N1CCn2ncc(Br)c2C1
- % Inhibition: -3%
- Z score: 0.46

Structure (SMILES): COCC1(O)CN(C(=O)Nc2cnn([C@@H](C)c3ccccc3)c2)C1
- % Inhibition: -5%
- Z score: 0.89

Structure (SMILES): C[C@H]1CN(C(=O)OC2CCCC2)CCN1c1cnccn1
- % Inhibition: -11%
- Z score: 1.86

Structure (SMILES): CC[C@H](C)CNC(=O)c1n[nH]c2c1CN(C(=O)c1ccccc1C)CC2
- % Inhibition: 4%
- Z score: -0.81

Structure (SMILES): O=C(c1cc[n+]([O-])cc1)N1CC[C@@]2(CCCN(CCC3CCCCC3)C2)C1
- % Inhibition: -2%
- Z score: 0.28

Structure (SMILES): CC(C(=O)N1CC(O)(c2nccn2C)C1)=C1CCCC1
- % Inhibition: -5%
- Z score: 0.8

Structure (SMILES): CN(C[C@H]1CCCN1C(=O)c1ccc(Cl)c(N)c1Cl)C(=O)OC(C)(C)C
- % Inhibition: -9%
- Z score: 0.96

Structure (SMILES): Cc1cc(N[C@H]2CCc3nc(C)nn3C2)nc(N)n1
- % Inhibition: -2%
- Z score: 0.33

Structure (SMILES): COc1ccc(C)cc1C(=O)NCC1CCN(Cc2c[nH]cn2)CC1
- % Inhibition: -7%
- Z score: 0.87

Structure (SMILES): O=C(NCc1cc(C2CC2)[nH]n1)NCC1(O)CCCCC1
- % Inhibition: -15%
- Z score: 1.42

Structure (SMILES): Cc1cccc(-c2noc(N3CCOCC3)c2CN(Cc2ccccc2)C(=O)c2ccc(Cl)cc2)c1
- % Inhibition: -2%
- Z score: 0.17

Structure (SMILES): COc1ccc(CC(=O)NCc2ccc3c(c2)N(C(=O)c2ccccc2)[C@@H](C)C3)cc1OC
- % Inhibition: 13%
- Z score: -1.5

Structure (SMILES): CN1CCCC1CNC(=O)C1CCCN(C(=O)c2ccc3[nH]ncc3c2)C1 (configuration not stated)
- % Inhibition: -12%
- Z score: 2.41

Structure (SMILES): CN(C(=O)CCc1ccc2c(c1)OCO2)[C@H]1CCS(=O)(=O)C1
- % Inhibition: -11%
- Z score: 1

Structure (SMILES): COc1ccc(S(=O)(=O)C2CN(C(=O)c3ccsc3)C2)cc1
- % Inhibition: -18%
- Z score: 2.32

Structure (SMILES): CCC(C(=O)N1CCc2cc(OC)c(OC)cc2C1c1ccc(OC)c(OC)c1)c1ccccc1 (configuration not stated)
- % Inhibition: 0%
- Z score: 0.08

Structure (SMILES): CN(Cc1ccc(-n2cccn2)cc1)[C@H]1CCC(=O)N(Cc2ccc(F)c(F)c2)CC1
- % Inhibition: -8%
- Z score: 0.9

Structure (SMILES): Cc1noc(C)c1-c1ccc(S(=O)(=O)N(C)Cc2ncon2)s1
- % Inhibition: -13%
- Z score: 1.85

Structure (SMILES): Cc1nn(C)c(C)c1CCC(=O)NCc1nc2cc(C(F)(F)F)ccc2n1C
- % Inhibition: 5%
- Z score: -1.02

Structure (SMILES): Cc1c(-c2cc(C(F)(F)F)n(CCC#N)n2)cnn1C
- % Inhibition: 1%
- Z score: -0.11

Structure (SMILES): OC[C@H](Cc1ccc(O)cc1)NC1CCCC(C(F)(F)F)C1 (some centres not stated)
- % Inhibition: -2%
- Z score: 0.21

Structure (SMILES): CN(C)c1cc(C(C)(C)C)c(O)c(C(C)(C)C)c1
- % Inhibition (2 µM): -4% and 3%

Structure (SMILES): Cc1noc(C)c1CC(=O)Nc1ccc(Cl)cn1
- % Inhibition: 4%
- Z score: -0.55

Structure (SMILES): Cc1ccc(-c2nccn2Cc2cn(C)nc2C)cc1C
- % Inhibition: -15%
- Z score: 2.19

Structure (SMILES): O=C(NCc1cccnc1)[C@@H]1[C@@H]2C=C[C@@]3(CN(Cc4ccccc4Cl)C(=O)[C@H]13)O2
- % Inhibition: -14%
- Z score: 2.36

Structure (SMILES): Cc1cc(=O)n2nc(-c3cccc4ccccc34)nc2[nH]1
- % Inhibition: 30%
- Z score: -3.41

Structure (SMILES): COc1ccc(-n2c(=O)c(C(=O)NCC3CC3)c(O)c3cccnc32)cc1
- % Inhibition: -17%
- Z score: 2.22

Structure (SMILES): COc1ccc(S(=O)(=O)N2C[C@@H]3CCCN3c3cc(C(F)(F)F)ccc32)cc1
- % Inhibition: 37%
- Z score: -4.79

Structure (SMILES): COc1ccc(COC(=O)c2ccc(C(F)(F)F)nc2)cn1
- % Inhibition: -13%
- Z score: 1.66

Structure (SMILES): CC[C@@H](C(=O)NCc1ccc(C)cc1)n1cc(-c2nc(C3CC3)no2)ccc1=O
- % Inhibition: -14%
- Z score: 2.61

Structure (SMILES): COc1ccc(C(=O)O)nc1-c1cccc(C(=O)N2C[C@H]3CCC[C@@H](C3)C2)c1
- % Inhibition: -2%
- Z score: 0.27

Structure (SMILES): Cc1ccc([C@H](CNC(=O)C(C)(C)n2cccn2)N2CCCC2)o1
- % Inhibition: -2%
- Z score: 0.24

Structure (SMILES): O=C(CCCc1ccccc1)Nc1cnoc1
- % Inhibition: -8%
- Z score: 1.28

Structure (SMILES): CCc1c(C)nc(N)nc1NCC(=O)NC1CC1
- % Inhibition: 1%
- Z score: -0.28

Structure (SMILES): O=C(Nc1cccc(-c2cnc[nH]2)c1)c1cccs1
- % Inhibition: -13%
- Z score: 1.74

Structure (SMILES): COCCNC(=O)c1nnc(-c2oc3ccc(C)cc3c2C)o1
- % Inhibition: -12%
- Z score: 1.92

Structure (SMILES): Cc1cc(C)nc(-c2ccccc2N(C)C)n1
- % Inhibition: -14%
- Z score: 1.84

Structure (SMILES): Cn1nccc1[C@H](O)c1cc2n(n1)CCCN(C1CCCCCC1)C2
- % Inhibition: 0%
- Z score: -0.04

Reference: ChEMBL document CHEMBL4888484, “Replenishing the malaria drug discovery pipeline: Screening and hit evaluation of the MMV Hit Generation Library 1 (HGL1) against asexual blood stage Plasmodium falciparum ,using a nano luciferase reporter read-out” (2022)
